Test results taken from the supplement of paper PMC11417369.
± gives the standard deviation of the averaged measurements. The list shows a part of the results.

These sequences were tested on PfAP2-EXP AP2 domain (GST-tagged) (assay: gcPBM binding intensity (ln(normalized median fluorescence intensity)); higher = stronger DNA binding).
Procedure, shortened: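 Binding intensity values are the highest Masliner-normalised natural-log median intensity among replicate spots of either probe orientation. The binding step lasted 1 h in 1× PBS with 1% milk, 0.2 mg/ml BSA, 0.5% salmon testes DNA and 0.03% Triton X-100, using GST-tagged P. falciparum DNA-binding domains expressed in E. coli on an Agilent 4 × 180k array of primer-extended double-stranded 36-bp intergenic genomic probes plus negative controls. Alexa488 anti-GST antibody and a 488 nm scan detected bound protein.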

Sequence | gcPBM binding intensity (ln)
TTATATTTCAATCATATTGTCACAAGTCATATTTAT [GTGCAC_negctrl_site366] | 8.24 ± 0.23
TATATATATATGTGCGTGCACGTTACCTTGCTGTTT | 10.1 ± 0.24
AAATTTAACAACTTCAAACACACAATATATATATAT [CACACA_site2092] | 9.87 ± 0.18
TTTCCAAATACAACTACACACAAACAAAAGTTATAT [CACACA_site6544] | 8.7 ± 0.5
TTAAATATAATTATATGTACATATTTATGTATATAT [XGTACX_site5811] | 8.26 ± 0.27
AGATTGTATTTATGTACACACATTTTTGGAATATGA [CACACA_site1340] | 8.98 ± 0.5
TTGATTAAAATTAGTACACACAAAATACATGCGGGG [CACACA_site5284] | 9.2 ± 0.3
ATATTATAATGTTTTTACGAATTCGCAAATTATTAT [GTGCAC_negctrl_site470] | 8.64 ± 0.51
TTTTTTTTTTTTTTTTTTTTTTTTTTATGATATATA [GTGCAC_negctrl_site365] | 7.74 ± 0.14
AATTTACAAAAAAGAAAAAAAAAAAAAAAGATACTT [CACACA_negctrl_site1434] | 8.19 ± 0.47
ATATGCACTCATTGTGCACACGCATATTACGAAAAG [CACACA_site2637] | 9.125 ± 0.064
TTAATTATCCATTTTGCACACATTTTAAAACATGAA [CACACA_site189] | 8.9 ± 0.46
AAAAAATTATTAATTTGTACATAAATAACCAAAAAA [XGTACX_site2488] | 8.43 ± 0.28
TAATTTATTACCATGTAATTATTACGAATATAGGAT [CACACA_negctrl_site694] | 8.48 ± 0.44
TATATATTAAAATAATCACACACATCAATTAATGGT [CACACA_site8331] | 8.38 ± 0.42
TTCAACGTTTTGGAATGTACAGAAAGGTATCCATCA [XGTACX_site179] | 8.53 ± 0.47
GAAATATAATTTATTACACACATTTTAAAAAAATTC [CACACA_site1087] | 8.11 ± 0.28
AAAAAAAAAAAAAAAAAAAAAAAAAAAAAATATGTG [GTGCAC_negctrl_site657] | 9.195 ± 0.064
TAAAAGATAAAATATGCATGTGTAATTTTTTTTTTT [TGCATGCA_site955] | 8.43 ± 0.32

Sequence | gcPBM binding intensity (ln)
TTTATAACATTTAAGAGTACAAAAAAATAAATAAAT [XGTACX_site1264] | 8.7 ± 0.46
TATTATTTACTTATTGCACACATATAAAATATATTT [CACACA_site9017] | 8.69 ± 0.26
ATCTATCATATTTATGCACACAAAAATAATTAATTC [CACACA_site8837] | 8.78 ± 0.057
TCACACACTCTCAAAAGTACAAGAAGATTATGAAGA [XGTACX_site4748] | 8.87 ± 0.59
AAAAAAATATATAAATGTACATATTGTTTAATTAAT [XGTACX_site3794] | 8.49 ± 0.4
ATGAACTAAACTAATCGTACAATAAGTTTTATTATA [XGTACX_site4891] | 8.31 ± 0.3
GTTGTCCCCCTTTCTATGCACACTTTAAATTATTCA [CACACA_site52] | 9.12 ± 0.18
AATTTATAAGAATATTGTACGTTTAATATATTGTAA [XGTACX_site7553] | 8.39 ± 0.16
ATTCTAATAGATAGTAGTACCTATAAGTTTTCTTTT [XGTACX_site2315] | 8.36 ± 0.4
AAGTTTATTATATATAAATTATTATATATATATATA [CACACA_negctrl_site189] | 9.79 ± 0.26
AAAATAATAATTAAATAATAGTAAATGAAAAATAAA [CACACA_negctrl_site57] | 8.66 ± 0.46
ATAAATACTAGGCACACACACATATAGATTTATATA [CACACA_site7064] | 8.94 ± 0.54
TATGTGTTCAGTATTGCACACACACTCCAAAATAAA [CACACA_site8018] | 8.39 ± 0.16
ACTTCATTTTATAAGTGTACATAATTTGTTTATATA [XGTACX_site5453] | 8.77 ± 0.33
ATATCAACTGAATTGTATAGGCGATAAAAGAAAAAA [CACACA_negctrl_site1334] | 8.78 ± 0.49
AGAATTATAAATTATAGTACATAAAATTTTGATGTA [XGTACX_site5726] | 8.34 ± 0.31
ATATAAATATATGTATGTACACATTTTTTTTTTTTT [XGTACX_site247] | 8.27 ± 0.31
TTTATACATACATTCGTGCACATACGTATAACATAT | 9.23 ± 0.042
AAACGATCTCGATGTTGTACACATTTATATAGAAAC [XGTACX_site4373] | 8.86 ± 0.4

Sequence | gcPBM binding intensity (ln)
CTAAACTAAACAAACTGTACACAAATAAAACAATAA [XGTACX_site8880] | 8.96 ± 0.36
CATGTGTGTATAATTTGTACATATACATAATAAATA [XGTACX_site2418] | 8.62 ± 0.38
TACTAAAATATATATATGCAACATGAGATATTCAAC [XGTACX_negctrl_site283] | 8.85 ± 0.39
TCTCATAGGAAACACACACACACACCCACATATATA [CACACA_site1738] | 8.59 ± 0.45
ATATATGTGCGCGTATGTACATAAAATAAATATACA [XGTACX_site2689] | 9.31 ± 0.32
TAAATAAAAAAAAAAAGTACATACATACAAACATAT [XGTACX_site4427] | 8.74 ± 0.53
ATATATTTTTTAAATTTAAAAATTATAAAATTTATA [TGCATGCA_negctrl_site36] | 8.16 ± 0.45
TGGGTCTCTAACTGGTGTACTATTTACATATTATAC [XGTACX_site8593] | 8.75 ± 0.37
TATGATTTTAACAACTGTACAATATAATAAATCTAA [XGTACX_site2198] | 8.38 ± 0.3
TAAAAGAAAAATTAGTGTACCAATATTAACATAAAA [XGTACX_site5474] | 8.38 ± 0.43
ATATATTTTTAATTACGTACTTAATAATATATACAA [XGTACX_site3285] | 8.52 ± 0.23
TATACAATATATTTTGGTACACAAACAAAAAAATAT [XGTACX_site2522] | 8.76 ± 0.45
ATTAAAAGAACCAAGTGTACATTCTATATATAAAAA [XGTACX_site4260] | 8.56 ± 0.38
GTTCACCAAAGGTAACGTACACAAACATATATATAT [XGTACX_site1073] | 9.705 ± 0.064
ATATTATGATCTATTTTTATATTCTATTTGATAAAT [CACACA_negctrl_site1070] | 8.43 ± 0.44
GAAAAAGACAAAAGGTGTACAATATGAAATATATAT [XGTACX_site373] | 8.88 ± 0.31
TAATTCTAAATAAATGTACACACAAAAATAAATGTA [CACACA_site8509] | 8.61 ± 0.26
TTATAAAATTTTCTTCTATATTTTAATTATTCTCAT [TGCATGCA_negctrl_site571] | 8.38 ± 0.67
